# Reference: article PMC4336329 (PLoS ONE, 2015)
# The whole screen tested about 310,000 compounds, of which about 2,200 (0.71%) showed an effect of 50% or more. The effect is printed as a negative number. Some of the results follow. Where a SMILES comes first, the peptide text is derived from it. [ ]: non-standard residue; d: D form. pGlu = O=C1CC[CH](C(=O)O)N1
# Target: human ether-à-go-go-related gene (hERG) potassium channel (human, UniProt Q12809)
# Assay: primary screen, population patch clamp on CHO cells stably expressing hERG
# human ether-à-go-go-related gene (hERG) potassium channel, sequence (Q12809 whole entry, looked up): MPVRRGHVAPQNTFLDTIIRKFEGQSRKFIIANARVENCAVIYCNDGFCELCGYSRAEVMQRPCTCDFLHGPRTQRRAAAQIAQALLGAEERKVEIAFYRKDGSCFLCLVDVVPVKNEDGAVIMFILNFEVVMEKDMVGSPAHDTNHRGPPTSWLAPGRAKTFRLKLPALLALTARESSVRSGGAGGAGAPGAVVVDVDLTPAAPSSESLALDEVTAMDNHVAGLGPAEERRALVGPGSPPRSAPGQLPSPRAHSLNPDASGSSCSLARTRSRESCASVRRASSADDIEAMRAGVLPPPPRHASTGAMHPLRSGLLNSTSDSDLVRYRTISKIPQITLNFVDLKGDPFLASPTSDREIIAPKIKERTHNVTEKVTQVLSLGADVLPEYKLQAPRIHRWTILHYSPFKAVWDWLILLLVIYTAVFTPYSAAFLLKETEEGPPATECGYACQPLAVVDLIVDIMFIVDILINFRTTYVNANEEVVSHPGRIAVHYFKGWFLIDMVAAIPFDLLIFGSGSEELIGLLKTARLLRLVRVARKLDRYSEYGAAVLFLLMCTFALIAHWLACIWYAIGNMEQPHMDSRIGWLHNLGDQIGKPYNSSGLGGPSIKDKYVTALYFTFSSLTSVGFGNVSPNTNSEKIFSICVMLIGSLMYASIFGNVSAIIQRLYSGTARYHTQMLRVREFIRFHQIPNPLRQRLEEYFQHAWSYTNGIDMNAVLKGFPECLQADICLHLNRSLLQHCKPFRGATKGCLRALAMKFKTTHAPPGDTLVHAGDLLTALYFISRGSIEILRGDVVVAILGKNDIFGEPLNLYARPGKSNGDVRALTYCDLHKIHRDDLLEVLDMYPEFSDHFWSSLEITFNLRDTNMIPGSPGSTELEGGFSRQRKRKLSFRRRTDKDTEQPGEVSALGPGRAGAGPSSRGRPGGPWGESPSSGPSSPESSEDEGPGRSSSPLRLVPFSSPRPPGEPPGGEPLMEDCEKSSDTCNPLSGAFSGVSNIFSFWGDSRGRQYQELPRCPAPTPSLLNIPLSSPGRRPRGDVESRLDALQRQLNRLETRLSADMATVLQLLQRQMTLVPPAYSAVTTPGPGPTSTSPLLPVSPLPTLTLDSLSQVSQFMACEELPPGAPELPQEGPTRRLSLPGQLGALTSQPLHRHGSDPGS
row,SMILES,"hERG current change (%, negative = inhibition) at 1uM"
1,Cc1nn(Cc2ccc(Cl)cc2)c(C)c1NC(=O)CSc1n[nH]c(C)c1[N+](=O)[O-],7.18%
2,Cc1ccc(Cl)cc1N1CCN(Cc2cc(=O)n3ccsc3n2)CC1,11%
3,CC(C)CC(NC(=O)C1CCC(=O)N1)C(=O)NC(CC(C)C)C(=O)N1CCCC1C(N)=O (stereo not shown) ([pGlu]LLP-NH2; configuration not given here),15.1%
4,Cc1nn(C)c(Cl)c1/C=N/OC(=O)c1ccccc1,12.7%
5,COc1ccc(O)c(CN2CCC(n3nccc3NC(=O)c3ccccc3Cl)CC2)c1,-15.4%
6,N/C(=N\OC(=O)c1ccoc1)c1ccc(Br)cc1,0.729%
7,Br.N=c1n(CC(=O)c2ccc(Br)s2)c2ccccc2n1Cc1ccccc1,-13.1%
8,Cc1cc(Cl)c(S(=O)(=O)Nc2cccc(O)c2)cc1OCC(N)=O,7.41%
9,CC1CC(C)CN(S(=O)(=O)c2cccc3cccnc23)C1 (stereo not shown),12.6%
10,O=C(OCc1csc(-c2ccccc2)n1)c1ccc(O)cc1,10.1%
11,CN(C)CCNC(=O)C1CCCNC1=O (stereo not shown),1.68%
12,COc1ccc(CCC(=O)NNC(=O)Nc2cccc(Cl)c2)cc1,8.85%
13,CC(NC(=O)Cn1cc2c(n1)CCCCC2)c1ccccc1 (stereo not shown),5.16%
14,CN1/C(=C\P(=O)(N(C)C)N(C)C)C(C)(C)c2ccccc21,6.33%
15,CCOC(=O)c1c(C)n(C)c2ccc(OCC(O)CN(CC)CC)cc12.Cl (stereo not shown),8.37%
16,O=C(NNC(=O)c1ccc([N+](=O)[O-])cc1)NC1CCCCC1,12.1%
17,Fc1ccc(/C=C\c2nccc3c2[nH]c2ccccc23)cc1,7.56%
18,Cc1nnc(SCCN2CCOCC2)n1C.O=C(O)C(=O)O,9.89%
19,Cc1ccc(CNC(=O)C2CC(c3cc(C(F)(F)F)cc(C(F)(F)F)c3)=NO2)o1 (stereo not shown),3.67%
20,Fc1ccc(-c2cc(C(F)(F)C(F)F)[nH]n2)cc1,11.5%

row,SMILES,"hERG current change (%, negative = inhibition) at 1uM"
1,CCCCC#Cc1ccc2c(c1)COc1c3ccccc3nn1-2,12%
2,Cc1ccc(C(C(=O)NC2CCCCC2)N(Cc2ccccc2)C(=O)Cc2c[nH]c3ccccc23)o1 (stereo not shown),-4.09%
3,CC1=C(C(=O)Nc2ccc(C)cc2)C(c2cccs2)NC(=S)N1 (stereo not shown),-0.101%
4,COc1ccc(NC(=O)NC(C)c2ccc3c(c2)OCO3)c(OC)c1 (stereo not shown),15.2%
5,CC(CCc1ccccc1)NC(=O)C1CC1 (stereo not shown),7.47%
6,COc1ccc(S(=O)(=O)N[C@@H](CSCc2ccccc2)C(=O)O)cc1,13%
7,COc1ccccc1CN1CC(C(=O)NC2CCCCC2)CC1=O (stereo not shown),1.27%
8,Cc1cnn(-c2cc(N/N=C/c3ccccc3)ncn2)c1,6.76%
9,Cc1ccc(C(=O)NC2CC(C)(C)NC(C)(C)C2)cc1S(=O)(=O)N1CCCCC1,-4.33%
10,CCOc1cc(/C=N/Nc2cc(C)nc(-n3nc(C)cc3C)n2)ccc1O,5.21%
11,Nc1ccc(-c2nc3cc(N)ccc3n2CCO)cc1,5.63%
12,CCCCNC(=O)c1ccc(NC(C)=O)c(Cl)c1,19.3%
13,Cc1cccc(NC(=O)c2ccc([N+](=O)[O-])o2)c1C,0.41%
14,O=c1[nH]c(=S)[nH]c2sc3c(c12)CCCCCC3,14.5%
15,N#Cc1ccc(-c2csc(NNC(=O)c3ccccc3)n2)cc1,5.53%
16,Clc1ccccc1-c1nc2nc3ccccc3nc2n1-c1ccc2c(c1)OCO2,10.9%
17,CCCCNC(=O)CCn1nc(-c2ccccc2)c2ccccc2c1=O,9.77%
18,CCOc1ccc(-c2nnc3ccc(SCC(=O)NCc4ccco4)nn23)cc1,-3.19%
19,CCCCS(=O)CC(COC)OC(=O)c1ccccc1 (stereo not shown),1.26%
20,CCOC(=O)c1c(NC(=O)c2ccoc2C)sc(C(=O)N(C)C)c1C,2.26%

row,SMILES,"hERG current change (%, negative = inhibition) at 1uM"
1,COc1ccc(C(=O)NCc2nnc(SCCOc3ccccc3)n2C)cc1,4.9%
2,Cc1cccc(CNC(=O)c2ccccc2N)c1,1.03%
3,COc1ccc(CC(=O)Nc2ccc(-c3nc4cc(C)ccc4o3)c(O)c2)cc1OC,6.8%
4,COc1ccc(-n2c(=S)[nH]c3cc(C(=O)NCCCN4CCCC4=O)ccc3c2=O)c(OC)c1,9.44%
5,CCN(CC)CC(=O)Nc1c(C)cc(C(C)(C)C)cc1C.Cl,4.29%
6,CC1(C)CC(=O)C=C(c2ccc3c(c2)OCO3)C1,8.75%
7,CC1CCN(C(=O)c2[nH]cnc2C(=O)N[C@@H](Cc2ccccc2)C(=O)OC(C)(C)C)CC1,2.28%
8,Cn1c(C(=O)NCCN2CCc3ccccc3C2)cc2c(=O)[nH]c3ccccc3c21,10.1%
9,Cc1n[nH]c(C)c1CCN.Cl,10.6%
10,COc1ccc(CCNC(=O)CN2C(=O)CSc3ccc(S(=O)(=O)N4CCOCC4)cc32)cc1OC,16.6%
11,O=C1CCCN1c1ccc(S(=O)(=O)N2CCCCC2)cc1,11.5%
12,Cc1cc(-c2ccc(C)c(S(=O)(=O)N3CC(=O)Nc4ccccc43)c2)on1,5.63%
13,COc1cc(OC)c(S(=O)(=O)NC(C)C)cc1S(=O)(=O)NC(C)C,11.3%
14,COc1ccc(CC(=O)NCc2cccs2)cc1OC,8.2%
15,COc1ccc(NC(=O)CN(CC(=O)Nc2ccc(OC)cc2)C(C)(C)CO)cc1,12.4%
16,CCCn1ncc(CN2CCC(Cc3cccc(F)c3)(C(=O)OCC)CC2)c1C,-10.2%
17,O=S1(=O)CC(NCc2ccccc2)C(Nc2ccccc2)C1 (stereo not shown),5.78%
18,Cc1ccc(C(=O)NC2CCN(CC(=O)NC3CCC(C)CC3)CC2)cc1 (stereo not shown),16.2%
